Reference: PubChem BioAssay AID493208 (National Center for Advancing Translational Sciences (NCATS), 2011)
The campaign covered roughly 44,000 compounds. About 340 (0.77%) were called active. About 5% were inconclusive and are not listed. Calls follow the shape of the dose curve; as a rule, active = well fitted inhibition curve with a large enough effect; inconclusive = small, poorly fitted or top-dose-only effect; inactive = flat fitted curve, though single readings scatter. The list shows a part of the results.

experiment: Acumen qHTS Assay for Inhibitors of the mTORC1 Signaling Pathway in MEF (Tsc2-/-, p53-/-) Cells: Sytravon; details: phospho-rpS6 immunofluorescence/PI, 24 h; series mostly up to 38.3 µM; activity change, negative = inhibition: at the top concentration;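 also: plate controls were DMSO for no effect and rapamycin for full effect; nearly all actives have a fitted effect of over 50% in size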
Procedure, shortened: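 Readout is phospho-S6 Alexa 488 signal normalized to PI per well, reported as % active cells with thresholds set from rapamycin (7.5 nM) and DMSO controls. Cells: Tsc2-/-, p53-/- MEFs, 24 hrs compound at 37 C; PI cell number serves as viability.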

Activity change, negative = inhibition, inactive:
O=C(O)CCCNc1cc(N2CCN(C3CCCCC3)CC2)c2noc3c2c1C(=O)c1ccccc1-3 -8.01%
CCOc1ccc(-c2cc(C(=O)Nc3ccc(NC(C)=O)cc3)no2)cc1 -3.29%
CCOc1ccc(OCC)c(NC(=O)CC(C)n2nc(C)cc2C)c1 (configuration not stated) -8.26%
Cc1ccc2onc(CNC(=O)NCc3cccc(Cl)c3)c2c1 3.85%
CCOc1ccc(NC(=O)CC2C(=O)N(c3ccc(C)cc3)C(=O)N2CCC2=CCCCC2)cc1 (configuration not stated) 3.55%
Nc1nonc1-c1nc2ccccc2n1Cc1cccc(Cl)c1 -22.6%
O=C(c1cccn2c(=O)c3cc(Cl)ccc3nc12)N1CCN(c2ccccc2F)CC1 -1.53%
Cc1ccc(CN(C(=O)c2ccccc2F)c2ccccn2)o1 -5.8%
CC(C)c1ccc(NC(=O)c2ccc(F)c(S(=O)(=O)N3CCc4ccccc4C3)c2)cc1 4%
CC(=O)Nc1ccc(S(=O)(=O)N2CCC(c3nnnn3-c3ccccc3)CC2)cc1 -2.57%
CCOc1ccc(-n2nc(CO)c(C(=O)NCCCc3ccccc3)n2)cc1 -6.31%
COc1ccc(Cl)cc1NC(=O)Cn1cc(C(=O)c2ccc(C)cc2)c(=O)c2ccc(C)nc21 5.47%
CCOc1ccc(C(=O)Nc2cccc(C(=O)OCc3cc(=O)n4nc(C5CC5)sc4n3)c2)cc1 14.9%
CCOC(=O)c1ccccc1NC(=O)CSc1nc(=O)[nH]c2c1CCC2 -3.27%
Cc1ccccc1CN1C(=O)C2(c3ccccc31)N(c1ccccc1)C(=O)CS2(=O)=O (configuration not stated) 2.09%
COc1ccc(CCNC(=O)c2c(O)nc3ccccn3c2=O)cc1 -3.12%
O=C(COc1ccc(Cl)cc1)Nc1ccc(C(=O)OCc2cc(=O)n3ccsc3n2)cc1 1.07%
C=Cc1ccc(Cn2c(C)c(CNCCc3ccccc3C)c(C(=O)O)c2C)cc1 -0.815%
FC(F)(F)Oc1ccc2c(c1)NC(c1ccncc1)=NC(c1cccs1)=N2 -13.6%
Cc1ccn2c(=O)c(C(=O)NCCCN3CCCCC3C)c(O)nc2c1 (configuration not stated) -7.57%
C=CCc1cccc2cc(C(=O)Nc3ccc(F)cc3)c(=O)oc12 -6.83%
COc1ccc2oc(=O)c(C(=O)Nc3ccc(C(=O)O)cc3)cc2c1 -18.5%
Cc1ccc(NC(=O)CCSc2nc(-c3ccco3)cc(C(F)(F)F)n2)cc1F -4.19%
COc1ccc(OCC(=O)Nc2nnc3n2CCS3)cc1 -1.25%
Cc1c(Cl)cccc1NC(=O)c1ncoc1-c1ccco1 0%
Cc1ccc(NC(=O)C(C)n2nnc3sc4c(c3c2=O)CCCC4)cc1Cl (configuration not stated) 1.66%
Oc1ccc(NCc2ccccc2OCc2ccccc2F)cc1 -26.5%
CCc1ccc(NC(=O)CSc2nc3ccccc3c(=O)n2CCNC(C)=O)cc1 -4.87%
CC(=O)c1ccc(NC(=O)CCCSc2nc(-c3ccco3)cc(C(F)(F)F)n2)cc1 -11%
Cc1c(Cl)cccc1NC(=O)c1ccc2snnc2c1 0.169%
CCOC(=O)c1c(C)[nH]c(CCC(=O)NCc2ccccc2Cl)c1C 3.94%
CCOC(=O)c1cccc(Nc2cc(-c3ccccc3)ncn2)c1 -5.44%
CCOc1ccc(OCC)c(NC(=O)C2CCN(c3nnc(-n4cccc4)s3)CC2)c1 -0.955%
COc1ccccc1NC(=O)CCN1CCCCC1 9.34%
Cc1nc(-c2ccccc2)sc1CCNC(=O)C(=O)Nc1ccc2c(c1)OCO2 4.77%
Cc1ccc(N(C)C(=O)C2CCN(S(=O)(=O)c3c(C)noc3/C=C/c3c(C)cc(C)cc3C)CC2)cc1 -23.5%
COc1cccc(OCCSc2nc(C)c(Cc3ccccc3)c(=O)[nH]2)c1 1.85%
COc1ccc(NC(=O)CCCN2C(=O)CCn3nc(-c4cn(C)c5ccccc45)cc32)cc1OC -0.259%
CCOC(=O)c1cccc(NC(=O)CC2C(=O)N(c3ccc(OC)cc3)C(=O)N2C2CCCC2)c1 (configuration not stated) 0.546%
Cc1cccc(N2CCN(S(=O)(=O)c3ccc4[nH]c5c(c4c3)CCCCC5)CC2)c1C -18.6%
Cc1cccc(C(=O)NCC(=O)OCc2cc(=O)n3nc(C4CCCCC4)sc3n2)c1 -0.497%
COc1ccccc1C(=O)Nc1cc2c(cc1N1CCCC1)n(C)c(=O)c(=O)n2C -0.415%
COc1cccc(NC(=O)C2=C(C)C(=O)OC23CCN(C(C)=O)CC3)c1 -0.612%
COC(=O)CN1C(=O)CSc2ccc(S(=O)(=O)Nc3cccc(C)c3C)cc21 -0.868%
Cc1ccc(CN2CCSc3ccc(C(=O)NCC(C)c4ccccc4)cc32)cc1 (configuration not stated) -9.02%
COc1cc2c(cc1OC)C(COc1ccc3c(C)cc(=O)oc3c1)N(C(=O)c1cc(Cl)ccc1OC)CC2 (configuration not stated) -6.61%
CCC(=O)N1c2ccc(S(=O)(=O)NCc3ccc(F)cc3)cc2CC1C (configuration not stated) -13.2%
CCN(CC)C(=O)Cn1nnc2sc(-c3ccccc3)cc2c1=O 2.61%
CCCOc1ccc(CNC(=O)c2ccc(-n3c(C)cc4c3CCC(C)C4)cc2)cc1 (configuration not stated) -15%
Cc1cc2oc(C(=O)Nc3ccc(S(=O)(=O)Nc4ncccn4)cc3)cc(=O)c2cc1C -1.15%
CCN(C(=O)CSc1nc2ccccc2[nH]1)c1ccccc1 -8.27%
Cc1ccc(NC(=O)Cn2ccn(-c3ccccc3)c(=O)c2=O)cc1 -12.6%
CCOc1ccc(C2NC(=O)c3c(COC)cc(C)nc3N2Cc2ccccc2)cc1OC (configuration not stated) 8.8%
Cc1ccc(Cn2cc(S(=O)(=O)c3cccc(Cl)c3)c(=O)c3cc(F)c(N4CCOCC4)cc32)cc1 -9.3%
COc1cc(OC)c(NC(=O)CCc2c(C)nc3cc(-c4ccccc4OC)nn3c2C)cc1Cl -0.0145%
CC(C)OC(=O)c1c(NC(=O)C2c3ccccc3Oc3ccccc32)sc2c1CCCC2 -0.74%
Cc1ccc(C)c(N2CCN(C(=O)c3ccc4c(c3)N(Cc3ccc(F)cc3)C(=O)c3ccccc3S4=O)CC2)c1 (configuration not stated) -0.674%
CC1CCC(Nc2nc3c(-c4cccc(C(F)(F)F)c4)nnn3c3ccccc23)CC1 (configuration not stated) -3.37%
Cc1ccc(NC(=O)C2CCCN(S(=O)(=O)c3cn(C(C)C)cn3)C2)c(C)c1 (configuration not stated) 25.2%
COc1ccccc1-c1noc(CCC(=O)Nc2ccc(C)cc2C)n1 4.21%
CC(=O)c1ccc(Nc2cc(C)nc3nc(Cc4ccc(Cl)cc4)nn23)cc1 -0.787%
CCc1ccc2oc(C(=O)Nc3cc(C)ccc3C)cc(=O)c2c1 3.05%
CC(C)c1nn2c(=O)cc(COC(=O)c3ccccc3NC(=O)C3CCCCC3)nc2s1 0%
O=C(Nc1cc2c(cc1C(=O)c1ccccc1Cl)OCCO2)c1ccccc1 -1.89%
CC1Cc2ccccc2N1C(=O)CSc1nnc(-c2ccccc2Cl)o1 (configuration not stated) -2.94%
CN(C)c1ccc(CNC(=O)c2ccccc2NC(=O)c2nsc3ccccc23)cc1 -4.13%
Cc1ccc(CNC(=O)CCNS(=O)(=O)c2cccc3nsnc23)cc1 -1.61%
CCn1cc(C(=O)N(C)c2ccc(C(C)C)cc2)c2cc(OC)c(OC)cc2c1=O 0%
Cc1ccc2nc(NC(=O)CSc3ncc(C(=O)Nc4ccc(F)cc4)c(=O)n3C)sc2c1 -3.63%
Cc1c(CCC(=O)N2CCCCC2)c(=O)oc2cc3occ(C(C)(C)C)c3cc12 2.92%
COCCn1cc(C(=O)NCCCOC(C)C)c2c3ccccc3n(C)c2c1=O 11.7%
Cc1ccc(Cc2nc3ccccc3nc2SCC(=O)N2CCN(c3ccc(F)cc3)CC2)cc1 0%
CCOC(=O)c1noc2nc(C)n(Cc3cccc([N+](=O)[O-])c3)c(=O)c12 -3.23%
CCc1nn(CC(=O)NC(C)CCc2ccccc2)c(=O)c2cc3c(OC)cccc3n12 (configuration not stated) -2.21%
Cc1nnc(SCC(=O)NCc2ccccc2Cl)c2nn(-c3ccccc3)c(C)c12 -0.166%
CCc1ccc(-n2nc(C)c3c(C)cc(=O)n(CC(=O)Nc4ccc(F)cc4C)c32)cc1 1.99%
CCC(C(=O)N1CCN(c2cc(C)ccc2C)CC1)n1nc(C)n2c(cc3occc32)c1=O (configuration not stated) -1.56%
Cc1ccc(S(=O)(=O)N2CCc3cc(C(=O)Nc4c(F)cccc4F)ccc32)cc1 -0.525%
Cc1ccc2c(CN3CCN(C(=O)c4ccc(Br)cc4)CC3)cc(=O)oc2c1 -3.5%
CCOC(=O)Cn1c(=O)n(C2CCCCC2)c2nc(-c3ccc(C(C)C)cc3)nc(C(N)=O)c21 3.5%
CCOc1ccc(NC(=O)C2CCCN(c3nnc(C)c4c(C)n(-c5ccccc5)nc34)C2)cc1 (configuration not stated) -0.709%
Cn1c(=O)c2c(nc(N3CCOCC3)n2Cc2ccc(Br)cc2)n(C)c1=O 0.801%
COc1ccccc1NC(=O)CSC1=Nc2ccccc2C2=NC(CC(=O)NCc3ccccc3)C(=O)N12 (configuration not stated) -2.03%
Cc1ccc(CN2CCN(C3CCNCC3)C(=O)C2=O)cc1 7.27%
COc1ccc(NC(=O)C2CCN(c3ccc(Sc4ccc(C)cc4)nn3)CC2)c(OC)c1 1.78%
O=C(CSc1ccc(-c2ccccn2)nn1)Nc1ccc(F)cc1F -0.0229%
CNS(=O)(=O)c1cn(CC(=O)Nc2ccc(C(C)=O)cc2)cc1S(=O)(=O)NC -7.99%
CCCCNS(=O)(=O)c1ccc(C)c(-c2nnc3c4ccccc4c(C)nn23)c1 -3.89%
Cc1ccc(CN2CCN(C3CCN(C(=O)Nc4ccc(C)cc4Cl)CC3)C(=O)C2=O)cc1 4.08%
CC(=O)N1CCc2cc(CNC(=O)c3ccccc3Br)ccc21 -5.22%
O=C(NCc1cccs1)C1CCN(C(=O)N2CCOc3ccc(Cl)cc32)CC1 -1.14%
CC(=O)N1CCc2cc(S(=O)(=O)NC(Cc3ccccc3)C(=O)NCc3ccc(C)cc3)ccc21 (configuration not stated) -3.19%
COc1ccc(CCNC(=O)C2CCN(S(=O)(=O)c3c(C)noc3/C=C/c3ccc(C)cc3)CC2)cc1OC 1.15%
CC(C)OC(=O)c1c(-c2ccccc2)c(-c2ccccc2)nn(C)c1=O -1.38%
Cc1cc(C)c(Cn2c(C3CC(=O)N(c4ccc(F)cc4)C3)nc3ccccc32)c(C)c1 (configuration not stated) 0.539%
CC(C)CCN(C(=O)Nc1ccccc1)C(C)c1cccs1 (configuration not stated) -1.56%
CCOC(=O)c1ccc(NC(=O)CCn2ccc(C)n2)cc1 0.361%
